# Source: PubChem BioAssay AID1645882 (National Center for Advancing Translational Sciences (NCATS), 2021)
# Among all 16,000 compounds or so, about 120 (0.75%) were called active. Not shown: some 4% with an inconclusive outcome. The call rests on the fitted dose curve; in most records, active means well fitted inhibition curve with a large enough effect; inconclusive means small, poorly fitted or top-dose-only effect; inactive means no such curve, though single readings can be large or run the other way. This is one part of the list.
# Biological target: Rap guanine nucleotide exchange factor 3 (Homo sapiens) (UniProt O95398)
# Sequence of UniProt O95398 (O95398 whole entry, looked up): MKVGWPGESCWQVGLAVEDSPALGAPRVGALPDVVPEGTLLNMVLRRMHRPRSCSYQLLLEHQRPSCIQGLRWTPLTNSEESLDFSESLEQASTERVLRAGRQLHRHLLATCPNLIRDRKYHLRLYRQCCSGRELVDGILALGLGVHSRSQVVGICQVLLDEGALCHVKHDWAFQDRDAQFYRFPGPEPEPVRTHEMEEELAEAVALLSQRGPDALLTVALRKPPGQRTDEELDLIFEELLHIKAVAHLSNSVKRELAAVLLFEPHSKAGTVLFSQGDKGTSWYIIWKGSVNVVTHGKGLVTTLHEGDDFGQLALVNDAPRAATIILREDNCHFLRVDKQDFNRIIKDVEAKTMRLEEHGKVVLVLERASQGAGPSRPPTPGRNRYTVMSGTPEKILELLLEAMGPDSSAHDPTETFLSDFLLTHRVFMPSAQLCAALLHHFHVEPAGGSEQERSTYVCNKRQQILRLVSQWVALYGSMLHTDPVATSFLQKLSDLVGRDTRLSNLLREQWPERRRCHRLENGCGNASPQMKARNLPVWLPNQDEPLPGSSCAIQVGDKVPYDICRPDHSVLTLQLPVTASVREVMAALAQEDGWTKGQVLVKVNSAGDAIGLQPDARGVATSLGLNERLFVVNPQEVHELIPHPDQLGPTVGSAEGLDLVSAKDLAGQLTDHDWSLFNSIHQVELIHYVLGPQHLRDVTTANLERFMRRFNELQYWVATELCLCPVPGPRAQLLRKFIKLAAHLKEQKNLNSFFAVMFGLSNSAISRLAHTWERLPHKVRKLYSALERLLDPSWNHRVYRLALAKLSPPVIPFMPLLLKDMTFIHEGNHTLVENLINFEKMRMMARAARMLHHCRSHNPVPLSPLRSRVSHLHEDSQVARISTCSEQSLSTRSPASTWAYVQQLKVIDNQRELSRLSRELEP
# Test: Validation qHTS for antagonist of cAMP-regulated guanine nucleotide exchange factor 3 (EPAC1); further: nearly all actives have a fitted effect of over 75% in size;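 on activity change, negative = inhibition: plate controls were DMSO for no effect and ATA control for full effect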
# Details: EPAC1 Rap1B-BODIPY-GDP exchange, fluorescence; series mostly up to 150 µM; activity change, negative = inhibition: at the top concentration
# In short: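 EPAC1 (100 nM) mixed with 250 nM RAP1B-BODIPY-GDP and 50 uM GDP; compounds in concentration series, 5 min at room temperature. Fluorescence (ex 480/em 540 nm) read every 5 min for 30 min; normalized to ATA control and DMSO.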
# Potency means the concentration at half of the fitted maximal effect.
SMILES,"activity change, negative = inhibition",Potency
O=C(c1cnccn1)N1CCC2(CC1)CN(c1ncccn1)C2,inactive: 24.3%,
CC(=O)N1CCC2(CC1)CN(Cc1cc(C(F)(F)F)cc(C(F)(F)F)c1)C2,inactive: 6.97%,
Cc1cccc(C(=O)NCc2nc(-c3cccc(NC(=O)C4CCCN(C)C4)c3)oc2C)n1 (stereo not drawn),inactive: 12.9%,
C=CCN1[C@@H](Cc2ccccc2)COCCS1(=O)=O,inactive: -11%,
COc1cc2c3cc1Oc1c(OC)c(OC)cc4c1[C@@H](Cc1ccc(O)c(c1)Oc1ccc(cc1)C[C@@H]3N(C)CC2)N(C)CC4,inactive: 0.714%,
OC1CCN(Cc2ccc3c(c2)CN(Cc2ccc(Oc4ncccn4)cc2)CCO3)CC1,inactive: 2.44%,
CCC1CN(CCC(=O)NC2CCOC(C)(C)C2)Cc2cc(OC)ccc2O1 (stereo not drawn),inactive: 6.52%,
Cc1csc(C(C)N(C)C(=O)c2cnn(-c3nccc(-c4cc(C)sc4C)n3)c2C)n1 (stereo not drawn),inactive: 6.01%,
Cc1c(N(C)CS(=O)(=O)O)c(=O)n(-c2ccccc2)n1C,inactive,
CCC1(C2CCN(Cc3ccccc3Cl)CC2)NC(=O)N(CC2COc3ccccc3O2)C1=O (stereo not drawn),inactive: -5.39%,
CCC1COCCS(=O)(=O)N1Cc1ccc(F)cc1 (stereo not drawn),inactive: 8.93%,
COc1ccc([C@H]2c3cc(OC)c(OC)cc3C[C@@H](C)[C@@H]2C)cc1OC,inactive: -12.5%,
CNc1ncnc2ccc(-c3ccccc3C#N)cc12,inactive: 5.44%,
COc1cc(OC)c(OC)cc1CN1CCCC(c2[nH]ncc2-c2cccc(C(F)(F)F)c2)C1 (stereo not drawn),inactive: 4.76%,
COc1ccc2c3c1OC1CC(O)C=C[C@@]31CCN(C)C2 (stereo partly drawn),inactive: 4.44%,
Cc1noc(C)c1C(=O)N1CCC[C@@]2(CCN(c3ncccn3)C2)C1,inactive: 9.67%,
CN1CCC[C@@H]1c1cccnc1,inactive: 18.4%,
O=C(Nc1ccccc1)N1CC[C@@]2(CCCN(C(=O)c3ccncc3)C2)C1,inactive: 22.9%,
CC(C)c1ccc(CN2CCC3(CCC(CNC(=O)c4ccn(C)n4)O3)CC2)cc1 (stereo not drawn),inactive: 19.7%,
COCC1CCCN(Cc2ccc3c(c2)CN(C(=O)c2cc(-c4ccccc4)n[nH]2)CCO3)C1 (stereo not drawn),inactive: -1.52%,
C=CC1=C(C)C2=CC3=NC(=C(CC(=O)[O-])C4=NC(=C(C)C4=C([O-])[O-])C=c4[n-]c(c(C)c4CC)=CC1=N2)C(CCC(=O)[O-])C3C.[Cu+2].[Na+].[Na+].[Na+] (stereo not drawn),,active: 89.1 µM
COCCCCCCCCCCCC(=O)O,inactive: -11% [at 15.3 µM],
O=C(NCC1Cc2cccc(-c3cccnc3)c2O1)c1ccc2cc[nH]c2c1 (stereo not drawn),inactive: -9.54%,
NCCNCCN,inactive: 21.4%,
C=CC1(C)CC(=O)C2(O)C(C)(O1)C(OC(C)=O)C(O)C1C(C)(C)CCC(O)C12C (stereo not drawn),inactive: 15.3% [at 75.8 µM],
COc1ccccc1-c1cc(Nc2ccc(F)cc2)ncn1,inactive: -3.78%,

SMILES,"activity change, negative = inhibition",Potency
CC(C)CN1CCC2(CC1)CCN(C(=O)c1cnccn1)CC2,inactive: 18.3%,
Nc1ncnc2c1c(-c1ccc(Oc3ccccc3)cc1)cn2C1CCCC1,inactive: 4.45% [at 75.8 µM],
CN1C(=O)N(C)C2=NNC=NC2(O)C1=O (stereo not drawn),inactive: 10.7%,
COC(=O)C1CCN(Cc2ccc3c(c2)CN(C(=O)c2ncc(C)[nH]2)CCO3)CC1,inactive: 23.5%,
CCN(CC)CCc1nc(-c2ccccc2)no1,inactive: 2.86% [at 75.8 µM],
CN(C)Cc1ccccc1-c1cncnc1Nc1ccccc1,inactive: -1.58%,
c1cncc(-c2nc(-n3ccnc3)c3ccccc3n2)c1,inactive: -0.704%,
CCCCC(CC)COC(=O)/C=C/c1ccc(OC)cc1 (stereo not drawn),inactive: -0.261%,
Cc1ccc2ncc(C)c(C)c2c1,inactive: 21%,
CCC(/C=C/C(C)C1CCC2C3CC=C4CC(O)CC[C@@]4(C)C3CC[C@@]12C)C(C)C (stereo partly drawn),inactive: 19.5%,
CCCCc1nc(Cl)c(CO)n1Cc1ccc(-c2ccccc2-c2nn[nH]n2)cc1,inactive: 8.71%,
c1nc(N2CCNCC2)c2cc(-c3ccc4c(c3)OCO4)ccc2n1,inactive: 6.42%,
CCCCCC[C@@H](O)C/C=C\CCCCCCCC(=O)O,inactive,
CC1=CCC2CC1C2(C)C (stereo not drawn),inactive: 22.6%,
CNCC(O)c1ccc(OC(=O)C(C)(C)C)c(OC(=O)C(C)(C)C)c1 (stereo not drawn),inactive: 23.8% [at 75.8 µM],
CC(C)(C)NC(=O)[C@H]1CC[C@H]2[C@@H]3CC=C4C=C(C(=O)O)CC[C@]4(C)[C@H]3CC[C@]12C,inactive: 34.5%,
CC(NC(=O)c1ccco1)c1nnc2n1CCN(Cc1ccc(N3CCCC3)cc1)CC2 (stereo not drawn),inactive: -3.27%,
Cc1ccccc1-c1nccc(NCc2cccs2)n1,inactive: -21.3%,
Cc1cccc(CNC(=O)c2cnn(-c3nccc(-c4ccccc4F)n3)c2C2CC2)n1,inactive: 16.3%,
COCc1c(C(=O)N2CCN(C3CCCC3)CC2)cnn1-c1nccc(-c2cccs2)n1,inactive: -16.9%,
COc1ccccc1CNc1ncnc2ccc(-c3cccc(C#N)c3)cc12,inactive: -9.96%,
O=S(=O)(O)NC1CCCCC1,inactive: 14.1%,
CN(Cc1ccco1)C(=O)c1cc(NC(=O)C2CCC2)c2c(c1)nc(-c1ccncc1)n2C,inactive: -3.58%,
COc1cc(=O)n2c(c1C(=O)NC(C)c1ccco1)CCN(Cc1ccnc3ccccc13)CC2 (stereo not drawn),inactive: 8.89%,
CC1(C)[C@H]2CC[C@]1(C)[C@H](O)C2,inactive: 11.7%,
COc1cc(OC)c(/C=C/c2ccc3ccccc3n2)c(OC)c1,inactive: 11.9%,

SMILES,"activity change, negative = inhibition",Potency
Cc1noc(C)c1CC(=O)NCC1Cc2cc(-c3cccc(OC(F)(F)F)c3)ccc2O1 (stereo not drawn),inactive: -1.58%,
COc1ccccc1-c1nc2cc(C(=O)NC[C@H]3CCc4ccccc4O3)cc(NC(C)=O)c2n1C,inactive: -10.5%,
CC(C)NC[C@@H](O)COc1cccc2ccccc12,inactive,
CC(=O)Oc1ccc2c(c1)CCC1C2CC[C@@]2(C)C1CC(OC(C)=O)C2OC(C)=O (stereo partly drawn),inactive: 16.4%,
CCc1cn([C@H]2C[C@H](O)[C@@H](CO)O2)c(=O)[nH]c1=O,inactive: -8.77%,
COC(=O)[C@H](CC(C)C)NS(=O)(=O)N[C@@H](CC(C)C)C(=O)OC,inactive: 7.84%,
Cc1nc2cnc(N3CCN(C)CC3)nc2n(CCc2ccccc2)c1=O,inactive: 3.32%,
CN1CCN(c2cc3c(nn2)Oc2ccccc2N3C)CC1,inactive: 11%,
COc1ccc(C(=O)C[n+]2ccccc2Cl)cc1,inactive: 7.36%,
Cc1c(C(=O)N(C)Cc2cscn2)sc2ncnc(NC[C@H]3CCc4ccccc4O3)c12,inactive: 14.9%,
CCCCCc1ccc(-c2cn(Cc3cccc(OC)c3)nn2)cc1,inactive: -7.59%,
COc1ccccc1C1CN(Cc2c(O)cccc2OC)Cc2ccccc2O1 (stereo not drawn),inactive: 8.51%,
CC(=O)O[C@H](CC(=O)O)C[N+](C)(C)C,inactive: -3.04%,
CCC1=C(C)CN(C(=O)NCCc2ccc(S(=O)(=O)NC(=O)NC3CCC(C)CC3)cc2)C1=O (stereo not drawn),inactive: 26.8%,
N#CCCn1c(=O)c(CCc2ccccc2)nc2cnc(Oc3ccccc3)nc21,inactive: 6.24%,
CN1CCN(c2nc3cc(C(F)(F)F)ccc3n3cccc23)CC1,inactive,
COc1cccc(C2(CC(=O)N3CCN(c4ccccn4)CC3)CC(=O)N(C3CCCC3)C2=O)c1 (stereo not drawn),inactive: 3.48%,
CC(C)(C)C1(O)CCN2CC3c4ccccc4CCc4cccc(c43)C2C1 (stereo not drawn),inactive: -0.178%,
Fc1cccc(/C=N/N=C/c2cccc(F)c2)c1,inactive: 9.48% [at 75.8 µM],
O=C(O)/C=C/c1ccc(Cn2ccnc2)cc1,inactive: 13.6% [at 75.8 µM],
O=C(NO)c1ccccc1,inactive: 27.3% [at 320 µM],
COc1ccc(-n2c(=O)c(-c3cn(C)c4ccccc34)nc3cnc(N4CCOCC4)nc32)cc1,inactive: 11.2%,
COc1ccc(-n2c(CNC(=O)c3cc(C(F)(F)F)ccc3Cl)nnc2SC)cc1,inactive: 16.2%,
COc1cccc(Cn2c(=O)c(-c3ccc(F)cc3)nc3cnc(N4CCNCC4)nc32)c1,inactive: -9.44%,
CCN(CC)CCOc1ccccc1OC,inactive: 3.14%,
O=C(c1ccncc1)N1CCC2(CCN(Cc3ccccc3)CC2)CC1,inactive: 11%,

SMILES,"activity change, negative = inhibition",Potency
CCCCCCCCN1[C@@H](CC(=O)O)c2cc(C(F)(F)F)ccc2S1(=O)=O,inactive: 9.17%,
CCc1nc2cc(C(=O)NC3CCS(=O)(=O)C3)cc(NC(=O)c3ccccc3OC)c2n1C (stereo not drawn),inactive: 9.26%,
COc1cccc(-c2cc(NCCc3c[nH]c4ccc(OC)cc34)ncn2)c1,inactive: -18.4%,
Cc1ncc2c(c1CNC(=O)/C=C/c1cccs1)CCN(C(=O)c1cc(C(C)C)on1)C2,inactive: 13.1%,
COCCOC(=O)C1=C(C)NC(C)=C(C(=O)OC/C=C/c2ccccc2)C1c1cccc([N+](=O)[O-])c1 (stereo not drawn),inactive,
Cc1cccc(CNc2cc(-c3cccnc3)ncn2)c1,inactive: 23.9%,
O=c1cnc2cnc(Oc3ccccc3)nc2n1Cc1cccs1,inactive: 0.937%,
CC1CC(O)CC(C)(C)C1 (stereo not drawn),inactive: -4.77%,
CCC(C)[C@H]1O[C@]2(C=C[C@@H]1C)C[C@@H]1C[C@@H](C/C=C(\C)[C@@H](O[C@H]3C[C@H](OC)[C@@H](O[C@H]4C[C@H](OC)[C@H](NC(C)=O)[C@H](C)O4)[C@H](C)O3)[C@@H](C)/C=C/C=C3\CO[C@@H]4[C@H](O)C(C)=C[C@@H](C(=O)O1)[C@]34O)O2 (stereo partly drawn),inactive: 8.43%,
CC(C)=CCC/C(C)=C/CC/C(C)=C/CC/C(C)=C/CC/C(C)=C/CC/C(C)=C/CC/C(C)=C/CC/C(C)=C/CC/C(C)=C/CO,inactive: -6.56%,
Cn1cccc1C(=O)N1CCC2(CC1)CN(c1ccncc1)C2,inactive: 14.7%,
FC(F)(F)C(F)(F)C(F)(F)C(F)(F)C(F)(F)F,inactive: 0.495%,
O=S1(=O)OC(c2ccc(O)cc2)(c2ccc(O)cc2)c2ccccc21,inactive: 0.463%,
COc1ccc(Oc2ncc3nc(C)c(=O)n(Cc4cccc(OC)c4)c3n2)cc1,inactive: 3.09%,
CCCCNc1ccc(C(=O)OCCOCCOCCOCCOCCOCCOCCOCCOCCOC)cc1,inactive: 7.6% [at 75.8 µM],
CCOC(=O)CCCCCCCCCCCCC1C=CCC1 (stereo not drawn),inactive: 12.5%,
COc1ccc(O)c(CN2CCC3(CCC(CNC(=O)c4ccco4)O3)CC2)c1 (stereo not drawn),inactive: 9.35%,
COc1ccc2[nH]c(C)cc2c1,inactive: 16.4%,
c1ccc(CNc2cc(-c3ccoc3)ncn2)cc1,inactive: 13.6%,
CCn1nc(C(=O)O)c(=O)c2cc3c(cc21)OCO3,inactive,
O=C(O)C(S)C(S)C(=O)O (stereo not drawn),inactive: 16.8%,
CCCCN1CCC(CCC(=O)c2cc(Cl)c(N)cc2OC)CC1,inactive,
COc1cc2c(cc1OC)C(c1ccc(N)cc1)=NNC(=O)C2,inactive,
Cc1onc(-c2ccccc2Cl)c1C(=O)NC1C(=O)N2C1SC(C)(C)C2C(=O)O (stereo not drawn),inactive: 23.1%,
Cc1cc(/C=C/c2ccc3cc(N(C)C)ccc3[n+]2C)c(C)n1-c1ccccc1,inactive: 11% [at 75.8 µM],
